Results published in the supplement of paper PMC12217912.
The other results are listed elsewhere or left out. Sequences were assembled here from the parent chain. Inactive controls read about 0.05.

B1: TEV protease; numbered along this chain (parent)
chain: MGESLFKGPRDYNPISSSICHLTNESDGHTTSLYGIGFGPFIITNKHLFRRNNGTLVVQSLHGVFKVKDTTTLQQHLVDGRDMIIIRMPKDFPPFPQKLKFREPQREERICLVTTNFQTKSMSSMVSDTSCTFPSGDGIFWKHWIQTKDGQCGSPLVSTRDGFIVGIHSASNFTNTNNYFTSVPKNFMELLTNQEAQQWVSGWRLNADSVLWGGHKVFMVKPEEPFQPVKEATQL

Variants of: B1
Assay: raw area under fraction-flipped curve 0-4 h after induction (AUC4h, not background-subtracted), DNA-recorder readout of cleavage of the substrate (dimensionless); higher = more cleavage of the substrate by the protease variant
Conditions: temperature: 34 °C; time window: 0-4 h after rhamnose induction
Protocol: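 In vivo DNA recorder in E. coli TOP10(DE3) ΔrhaA at 34 °C. Each TEVp single-site mutant (parent TEVp 0) is paired with a single-site variant of the 7-mer TEVs (canonical ENLYFQ|S). The substrate sits between flexible linkers in a Bxb1-sfGFP-TEVs-SsrA fusion, so cleavage stabilises Bxb1 and speeds flipping of a recombination array, read by NGS. The value is the raw area under the fraction-flipped curve over 0-4 h after rhamnose induction (AUC4h), with ≥20 reads per time point. It is not background-subtracted; inactive controls average about 0.047.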
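Also: Bxb1 expression induced with 0.2% (w/v) L-rhamnose at OD600 near 0.5, cultures sampled hourly, flipped fraction per protease–substrate barcode pair counted by paired-end Illumina sequencing.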

Row | Variant | area with substrate ENLYFAS | area with substrate ENLYFCS | area with substrate ENLYFDS | area with substrate ENLYFES | area with substrate ENLYFHS | area with substrate ENLYFKS | area with substrate ENLYFMS | area with substrate ENLYFPS | area with substrate ENLYFRS | area with substrate ENLYFTS | area with substrate ENLYFWS | area with substrate ENLYFFS | area with substrate ENLYFGS | area with substrate ENLYFIS | area with substrate ENLYFLS | area with substrate ENLYFNS | area with substrate ENLYFSS | area with substrate ENLYFYS | area with substrate ENLYFVS
1 | T114Y | 0.0533 | 0.0644 | 0.0665 | 0.0781 | 0.0565 | 0.0622 | 0.0479 | 0.0609 | 0.0531 | 0.0599 | 0.0522 | – | – | – | – | – | – | – | –
2 | L73I | 0.0567 | 0.0605 | – | 0.0631 | – | 0.0516 | 0.0593 | 0.0685 | 0.0513 | 0.0612 | 0.0484 | 0.0642 | 0.0707 | 0.055 | 0.0687 | 0.0587 | 0.0609 | 0.0553 | –
3 | F65L | 0.0523 | – | – | – | – | – | 0.0598 | 0.0474 | 0.0555 | – | 0.0451 | – | 0.0676 | 0.0508 | – | 0.0589 | – | 0.0429 | –
4 | F65G | 0.0652 | – | 0.0693 | 0.0748 | – | 0.0521 | 0.0646 | 0.0616 | 0.0569 | – | 0.0487 | 0.0647 | 0.039 | 0.0544 | – | 0.0587 | 0.053 | 0.0784 | 0.0629
5 | R109I | 0.0896 | 0.0565 | – | 0.0624 | 0.0572 | – | 0.054 | 0.058 | 0.0604 | 0.0637 | 0.0478 | 0.0657 | – | 0.0517 | 0.0286 | 0.0698 | 0.0668 | 0.0575 | 0.0572
6 | R109Q | 0.108 | 0.0631 | – | – | 0.058 | 0.0676 | 0.0746 | 0.0625 | 0.0446 | 0.0526 | – | 0.0741 | – | 0.0701 | 0.0674 | 0.072 | – | – | –
7 | R109W | 0.0595 | 0.0588 | 0.0568 | 0.0765 | 0.0522 | 0.0415 | 0.0748 | 0.0569 | 0.0742 | 0.0629 | 0.0513 | 0.0732 | 0.0677 | 0.0599 | – | 0.077 | 0.0719 | 0.0348 | 0.0642
8 | I110D | 0.041 | 0.0538 | 0.0392 | – | 0.0125 | 0.054 | 0.051 | 0.0504 | 0.063 | 0.0518 | 0.0749 | 0.0575 | – | 0.0418 | 0.054 | 0.0535 | 0.0518 | 0.0423 | 0.0549
9 | I84G | 0.0451 | – | 0.0559 | 0.0543 | 0.0566 | – | 0.063 | 0.0515 | 0.0427 | 0.0518 | – | 0.0608 | 0.0419 | 0.0536 | 0.0613 | 0.0397 | 0.0527 | 0.0456 | 0.0459
10 | I84E | 0.0389 | – | – | 0.0532 | 0.0646 | 0.0567 | 0.0446 | 0.0524 | 0.0438 | – | 0.0202 | 0.0717 | 0.0548 | 0.0486 | 0.0524 | 0.0516 | 0.0436 | 0.05 | –
11 | Q105R | 0.0576 | 0.0609 | 0.069 | 0.0622 | 0 | 0.0621 | 0.0635 | 0.0568 | 0.0649 | 0.0598 | 0.0671 | 0.0607 | – | 0.063 | 0.085 | 0.0583 | 0.0646 | 0.0508 | 0.0988
12 | H62A | 0.0907 | 0.0484 | – | – | – | – | 0.0501 | 0.0773 | 0.0743 | 0.0649 | – | – | – | 0.0524 | – | 0.0945 | 0.0555 | 0.0425 | 0.0139
13 | S121H | 0.0552 | – | 0.0799 | 0.0602 | 0.06 | 0.0591 | 0.0727 | 0.0571 | 0.0591 | 0.0658 | 0.0566 | 0.0729 | – | 0.0611 | – | – | 0.0566 | 0.0505 | 0.0566
14 | S121M | 0.0532 | 0.0527 | 0.0369 | 0.0684 | 0.0654 | 0.0526 | 0.0667 | – | 0.0587 | 0.0603 | – | 0.0491 | – | 0.0565 | 0.0364 | 0.0637 | – | – | –
15 | Q59I | 0.0595 | – | – | 0.077 | 0.0567 | 0.0672 | 0.0497 | 0.0588 | 0.0849 | 0.0667 | – | 0.0737 | – | 0.0511 | 0.058 | – | 0.0448 | 0.072 | –
16 | K98C | 0.0579 | 0.0575 | – | 0.0669 | 0.0999 | 0.0638 | 0.0695 | 0.0545 | – | 0.0677 | 0.0553 | 0.0678 | – | 0.0583 | 0.0558 | 0.0599 | 0.0559 | 0.0656 | 0.0533
17 | K98L | 0.0691 | – | – | 0.0847 | 0.0455 | – | 0.0592 | 0.0592 | – | 0.0544 | 0.0487 | 0.0695 | – | 0.0639 | – | 0.0632 | 0.054 | 0.0691 | 0.0548
18 | K98A | 0.0746 | 0.057 | 0.111 | 0.0547 | – | 0.0656 | – | 0.0617 | – | 0.06 | 0.0746 | 0.0601 | – | 0.0567 | – | – | – | 0.0365 | –
19 | V78W | 0.0782 | 0.0598 | – | 0.0576 | 0.0495 | 0.077 | 0.0545 | 0.0529 | 0.0619 | 0.0618 | 0.0619 | 0.0685 | – | 0.0551 | – | 0.0589 | 0.0584 | 0.0546 | 0.0633
20 | V78Y | 0.0293 | 0.0534 | 0.0534 | 0.0579 | – | 0.0603 | – | – | 0.0569 | – | 0.0582 | 0.0637 | – | 0.0603 | – | 0.0565 | – | 0.0549 | 0.0586
21 | V78P | 0.0526 | 0.057 | 0.0686 | 0.0622 | 0.0565 | 0.0557 | 0.0607 | 0.0582 | 0.0551 | – | 0.055 | 0.0704 | 0.0619 | 0.0535 | 0.0526 | 0.0568 | 0.0733 | 0.0431 | –
22 | H76R | 0.0617 | 0.0682 | – | 0.0936 | – | 0.0528 | 0.042 | 0.0573 | – | 0.0586 | 0.0718 | 0.0697 | – | 0.052 | 0.0611 | 0.0575 | 0.0475 | 0.0623 | 0.0444
23 | N53V | 0.0785 | 0.0615 | 0.0682 | 0.062 | – | – | 0.0715 | – | 0.0637 | 0.0382 | – | – | – | 0.0558 | – | 0.0546 | 0.0623 | 0.054 | –
24 | T55S | 0.0493 | 0.0642 | – | 0.0452 | 0.0489 | 0.0515 | 0.0718 | 0.0596 | 0.0604 | 0.0541 | 0.0591 | 0.0622 | – | 0.0584 | – | 0.0598 | – | 0.0795 | 0.0663
